The whole screen tested about 340,000 compounds, of which about 6,900 (2%) were called active. Cut-off read from the data, not from the text of the source: active = inhibition above about 30%; inactive = below that, where a call was filed. This is a selection; strong and weak results do not stand in their true shares. Where no call is shown, the source filed none.
These compounds were tested against D(2) dopamine receptor (Homo sapiens) (UniProt P14416) (assay: HTS Assay for Allosteric Antagonists of the Human D2 Dopamine Receptor: Primary Screen for Antagonists). Details: HEK293 TREx D2 cells, calcium flux, dopamine EC80; at 10 µM; stronger effect = higher value.
Chain of UniProt P14416 (P14416 whole entry, looked up): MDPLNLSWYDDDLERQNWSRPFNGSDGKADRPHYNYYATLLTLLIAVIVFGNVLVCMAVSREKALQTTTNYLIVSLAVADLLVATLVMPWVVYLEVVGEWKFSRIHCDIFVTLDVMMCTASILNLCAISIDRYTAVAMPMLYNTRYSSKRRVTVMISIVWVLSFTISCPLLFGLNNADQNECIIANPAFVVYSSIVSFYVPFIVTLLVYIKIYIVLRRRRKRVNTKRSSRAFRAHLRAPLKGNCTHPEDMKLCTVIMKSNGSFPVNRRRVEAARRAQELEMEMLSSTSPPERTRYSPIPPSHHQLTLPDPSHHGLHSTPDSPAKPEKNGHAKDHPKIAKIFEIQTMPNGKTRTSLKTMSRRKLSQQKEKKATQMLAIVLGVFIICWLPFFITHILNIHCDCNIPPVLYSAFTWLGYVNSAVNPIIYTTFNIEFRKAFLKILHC
Procedure, shortened: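 Calcium mobilization kinetics were recorded at 1 s intervals in tetracycline-induced HEK293 T-REx D2 cells, first for 180 s after compound addition and then 180 s after EC80 dopamine.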
Note: 0% is about no effect.

| SMILES | inhibition |
| --- | --- |
| O=C(Nc1ccccc1C(F)(F)F)C1CCN(S(=O)(=O)Cc2ccccc2)CC1 | 13.9% |
| O=C(CSc1nc2nccnc2c(=O)n1CCc1c[nH]c2ccccc12)Nc1ccccc1 | -19.1% |
| O=C(NC1CC(=O)N(c2ccccc2)C1)C(c1ccccc1)c1ccccc1 (configuration not stated) | 14.9% |
| COc1ccc(NS(=O)(=O)c2ccc(N/N=C(\C)c3ccncc3)c([N+](=O)[O-])c2)cc1 | active: 79.3% |
| COC(=O)c1c(NC(=O)/C(C#N)=C/c2ccc(OC)cc2)sc2c1CCC2 | -3.14% |
| COc1ccc(CN2C3CCCC2CC(NC(=O)c2cccc(F)c2)C3)cc1 (configuration not stated) | active: 80.1% |
| Cc1cc(C)cc(NC(=O)N2CCC(CN3CCCCCC3)CC2)c1 | 7.22% |
| CCc1cc2c(=O)oc(-c3ccc(Br)cc3)nc2s1 | active: 32.8% |
| CCC(=O)N1c2ccc(S(=O)(=O)CCC(=O)N3CCN(c4cc(C)ccc4C)CC3)cc2CC1C (configuration not stated) | 26.6% |
| O=C1CN=C(Nc2ccccc2Cl)N1c1ccccc1 | active: 36.4% |
| CCCSc1ncc(Cl)c(C(=O)Nc2c(C(=O)c3ccc(C)cc3)oc3ccccc23)n1 | 16.4% |
| CCOc1ccc2nc(NC(=O)c3nc(SCc4ccccc4C)ncc3Cl)sc2c1 | -4.1% |
| Cn1c(=O)c2c(nc(SCC(=O)Nc3ccc(F)cc3)n2Cc2ccccc2F)n(C)c1=O | 13% |
| COc1c(Cl)cc(C(=O)N(Cc2ccccc2F)C2CCS(=O)(=O)C2)cc1Cl (configuration not stated) | 5.42% |
| CCC(Sc1nc(-c2ccc(F)cc2)nc2c1Cc1c(CO)cnc(C)c1O2)C(=O)Nc1ccc(F)cc1 (configuration not stated) | 3.47% |
| CC(C)(C)OC(=O)N1CCc2nc(N3CCN(c4ncccn4)CC3)ncc2C1 | 5.53% |
| CCS(=O)(=O)N1CCc2cc(C(=O)N3CCN(c4ccccc4OC)CC3)ccc21 | -4.65% |
| COc1ccc(-n2c(SCC(N)=O)nc3c(oc4ccccc43)c2=O)cc1 | 10.8% |
| Cc1ccc(-c2onc(C)c2C)cc1S(=O)(=O)N1CCOc2ccc(Cl)cc21 | 9.55% |
| CC(C)CN1CCc2nc(Nc3ccc(F)cc3F)ncc2C1 | -13.9% |
| O=C(Cc1cccs1)Nc1c(C(=O)Nc2ccc(F)cc2)oc2ccccc12 | -7.1% |
| CC(=O)N1CCc2c(sc3c2c(=O)n(Cc2ccccc2)c(=O)n3Cc2ccccc2F)C1 | -14.7% |
| O=C(CN1CCN(Cc2ccccc2Cl)C1=O)NC1CCCCCCC1 | active: 31% |
| COc1cc(/C=C(\C#N)c2nc3ccccc3[nH]2)ccc1OCc1ccccc1F | 8.34% |
| COc1ccc(S(=O)(=O)NCCSc2nnnn2-c2ccccc2)cc1OC | -2.33% |
| CCN(Cc1ccccc1)C(=O)c1cc(-c2ccccc2)n[nH]1 | 10.9% |
| Cc1ccc(Cl)cc1N1CCN(C(=O)CN2C(=O)COc3ccc(S(=O)(=O)N4CCCCCC4)cc32)CC1 | -3.62% |
